Experimental data: article PMC6919601, “Identification of Plasmodium dipeptidyl aminopeptidase allosteric inhibitors by high throughput screening” (PLoS ONE, 2019)
The campaign covered roughly 110,000 compounds. About 230 (0.21%) showed an effect of 50% or more. The list shows a part of the results.

These molecules were tested against DPAP1 (Plasmodium falciparum, UniProt Q8IIJ9) (assay: primary screen, percent inhibition; read by cleavage of a fluorogenic dipeptide substrate; higher = more effect of the substance).
Set-up: species or system P. falciparum D10 trophozoite lysates; single well
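Also: 30 min substrate incubation versus DMSO and 10 µM JCP410 controls.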

Chain of DPAP1 (Q8IIJ9 whole entry, looked up): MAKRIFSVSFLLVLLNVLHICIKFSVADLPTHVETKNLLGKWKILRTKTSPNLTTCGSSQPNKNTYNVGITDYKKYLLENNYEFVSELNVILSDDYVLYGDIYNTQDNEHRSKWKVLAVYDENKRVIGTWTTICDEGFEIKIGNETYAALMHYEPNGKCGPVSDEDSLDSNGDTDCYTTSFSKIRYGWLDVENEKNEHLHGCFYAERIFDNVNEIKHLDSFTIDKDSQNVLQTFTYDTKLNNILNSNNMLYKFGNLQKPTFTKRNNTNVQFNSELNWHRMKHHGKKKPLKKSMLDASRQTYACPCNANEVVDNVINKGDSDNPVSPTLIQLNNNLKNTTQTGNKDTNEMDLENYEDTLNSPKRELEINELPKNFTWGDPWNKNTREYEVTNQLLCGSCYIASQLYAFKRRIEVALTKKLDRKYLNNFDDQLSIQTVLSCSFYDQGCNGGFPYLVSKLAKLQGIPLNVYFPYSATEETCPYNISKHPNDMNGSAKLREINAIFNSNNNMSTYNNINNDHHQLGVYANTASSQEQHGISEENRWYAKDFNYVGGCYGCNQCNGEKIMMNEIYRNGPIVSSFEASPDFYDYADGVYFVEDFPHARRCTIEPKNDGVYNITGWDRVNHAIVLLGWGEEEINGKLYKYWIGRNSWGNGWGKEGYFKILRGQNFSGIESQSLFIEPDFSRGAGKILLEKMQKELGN

Row | Structure (SMILES) | % Inhibition @ 10 uM [%]
1 | O=C(c1ccc(Cn2cc(Br)cn2)o1)N1N=C(C(F)F)CC1(O)C(F)F (stereo not shown) | -3.71
2 | O=[N+]([O-])c1ccc(CN2CCN(c3ccccc3)CC2)cc1 | -3.56
3 | CC(C)Cn1cc(NC(=O)NC2CCCCC2)c2ccccc2c1=O | -3.29
4 | CCC(=O)Nc1nonc1-c1nc2ccccc2n1Cc1cc2c(cc1Br)OCO2 | 2.25
5 | COc1ccc(-c2nc3cc(Cl)ccc3[nH]2)cc1OC | -4.39
6 | CCOc1ccc(NC(=O)c2cccc(Br)c2)cc1 | -5.41
7 | Cc1noc(/C=C/N(C)C)c1S(=O)(=O)N1CCCC(C(=O)NCc2ccccc2Cl)C1 (stereo not shown) | -8.42
8 | CCO/C(O)=C1/C(C)=Nc2ncnn2C1c1ccc(OC(F)F)cc1 (stereo not shown) | -3.37
9 | Cc1ccc(C(=O)N(Cc2ccc(Cl)cc2)Cc2ccco2)cc1 | 1.25
10 | CCOC(=O)c1cn(-c2ccccc2)nc1-c1ccc(OC)c(OC)c1 | 2.38
11 | CCOc1cccc(-c2cc(C(=O)Nc3sc(C)cc3C(=O)OC)c3ccccc3n2)c1 | -3.02
12 | CN(C)CCNC(=O)C1CCCN(c2ncnc3c2nc2n3CCCCC2)C1 (stereo not shown) | 2.59
13 | CCN1CCN(C(CNC(=O)C(=O)NCCCc2ccccc2)c2cccnc2)CC1 (stereo not shown) | -7.29
14 | c1cncc(CNc2c3ccccc3nc3ccccc23)c1 | 1.58
15 | Nc1n[nH]c(SCC(=O)c2ccc(Cl)cc2)n1 | 1.27
16 | Cc1ccc(-c2ccccc2)nc1C | -2.28
17 | CC(NC(=O)CCc1ccc(-n2cnc3cccnc32)cc1)c1ccccc1 (stereo not shown) | 5.87
18 | Cc1ccc(Cn2c(=N)c(S(=O)(=O)c3ccc(C)cc3)cc3c(=O)n4ccccc4nc32)cc1 | -0.446
19 | CCOCCCNC(=O)Nc1cn(C)c(=O)c2ccccc12 | 6.64
20 | c1cc(-c2nnc(-c3ccncc3)o2)ccn1 | -4.08
21 | Cc1ccc(OCCn2ccnc2)c(Cl)c1 | 2.22
22 | c1ccc2oc(-c3nn4c(Cn5nnc6ccccc65)nnc4s3)cc2c1 | 7.31

Row | Structure (SMILES) | % Inhibition @ 10 uM [%]
23 | OC(CN1CCC2(CC1)OCCO2)c1ccc2cc[nH]c2c1 (stereo not shown) | 5.53
24 | COC(=O)c1cc2oc3ccccc3c2n1CC(=O)NCCC1=CCCCC1 | -3.34
25 | COc1ccc(-n2cnc3cc(NC(C)=O)ccc32)cc1 | 3.65
26 | CCN(CC)S(=O)(=O)c1ccc2oc(C(=O)NCCc3ccc(OC)c(OC)c3)c(C)c2c1 | -1.07
27 | CC(=O)N(CN1C(=O)c2cc(Cl)c(Cl)cc2C1=O)c1ccccc1C | -1.96
28 | COc1ccc(/C=N/N=C(\N)c2nonc2N)cc1OC | 2.24
29 | Fc1ccc(-c2nnc(-c3ccc(F)cc3)o2)cc1 | 20.7
30 | O=C(CCN1C(=O)c2ccccc2C1=O)N1CCN(c2ccccn2)CC1 | -2.53
31 | CCC(CC)NCc1ccc2c(c1)c1ccccc1n2CC | -3.74
32 | CCOc1ccccc1CNC(=O)c1cc2sc(C)cc2n1C | -4.85
33 | CC1=C(C(=O)OCC2CCCO2)C(c2cccc(O)c2)NC(=O)N1 (stereo not shown) | 4.35
34 | COc1ccc(C2CC(=O)N3C(=C2C#N)SCC3(O)c2ccccc2)cc1 (stereo not shown) | 0.66
35 | CCn1c(C)c(C)c2cc(C(=O)NCc3ccc(C)cc3)ccc21 | -2.83
36 | Cc1cc(C)cc(C(=O)N[C@@H](Cc2cc(I)c(O)c(I)c2)C(=O)NCC#N)c1 | -3.04
37 | CN1CCN(CCCn2cnc3c2c(=O)n(C)c(=O)n3C)CC1 | -5.26
38 | COCCn1c(N2CCOCC2)nc2c1c(=O)n(C)c(=O)n2C | -4.67
39 | O=S(=O)(c1ccc2c(c1)Cc1ccccc1-2)N1CCCCC1 | -1.41
40 | O=[N+]([O-])c1ccc(Oc2ccc(S(=O)(=O)NCc3ccccc3)cc2)cc1 | -4.35
41 | CC(C(O)C12CC3CC(CC(C3)C1)C2)N(C)C (stereo not shown) | 3.05
42 | C(#Cc1csc2ccccc12)c1ccccc1 | -4.91
43 | CCCCCC(=O)Nc1ccc(NC(C)=O)cc1 | 2.01
44 | O=C1S/C(=C\c2ccc(F)cc2)C(=O)N1CN1CCCC1 | 0.331

Row | Structure (SMILES) | % Inhibition @ 10 uM [%]
45 | O=C(O)CCCCn1c(SCc2ccccc2Cl)nc2ccsc2c1=O | 8.15
46 | CCc1ccc(C2CC(=O)NC(SCC(=O)Nc3ccccc3)=C2C#N)cc1 (stereo not shown) | -2.54
47 | CCC(C)NC(=O)C1CCN(S(=O)(=O)c2ccc3nc(O)ccc3c2)CC1 (stereo not shown) | 2.51
48 | COc1ccccc1/N=c1\scc(-c2ccc(S(=O)(=O)N3CCOCC3)cc2)n1CC(C)C | 8.08
49 | COc1ccc2nc(N3CCOCC3)cc(C)c2c1 | -3.48
50 | Nc1cccc(NC(=O)c2cc(F)c(F)cc2Cl)c1 | -1.88
51 | CCN(Cc1nc(-c2ccc(OC)cc2)no1)S(=O)(=O)c1c(C)cc(C)cc1C | -2.71
52 | CN1CCN(C(=O)c2ccc3c(c2)sc2nc(-c4ccc(F)cc4)cn23)CC1 | 18.7
53 | CC1Cc2nc(SCC(N)=O)n(CCc3ccccc3)c(=O)c2S1 (stereo not shown) | -3.51
54 | C/C=C(\C)CN1CCN(CCO)CC1 | 2.99
55 | C=CCN1C(=O)S/C(=C/c2ccc(OCc3ccc(C(=O)O)cc3)cc2)C1=O | -1.95
56 | O=C(c1ccco1)N1N=C(c2cccs2)CC1c1ccco1 (stereo not shown) | 1.05
57 | COC(=O)C1=C(C)N=C(C)/C(=C(/O)OC)C1c1ccc(-c2cccc(Cl)c2Cl)o1 (stereo not shown) | -5.63
58 | COc1ccc(CN2CCN(C/C=C/c3ccccc3)CC2)c(OC)c1OC | -2.91
59 | COc1ccc2ccccc2c1CN(CCCN(C)C)CCCN(C)C | 0.871
60 | N=C(N)n1nc2ccc3nn(C(=N)N)nc3c2n1 | 1.42
61 | COc1ccc(Cc2nc3c4cnn(Cc5ccccc5)c4ncn3n2)cc1OC | -4.64
62 | O=C(c1cccs1)N1CCN(c2ccc(F)cc2)CC1 | 0.135
63 | CCOCCn1c(CN2CCN(C(=O)c3ccco3)CC2)nc2c1c(=O)n(C)c(=O)n2C | 0.317
64 | N#Cc1c(O)nc(SCC(=O)N2CCN(C34CC5CC(CC(C5)C3)C4)CC2)nc1-c1ccccc1 | 4.57
